The test system of the assay is NCI-H1944. Nature of the assay: normalised cell viability (NPI; 0 = phenylarsine oxide control, 1 = DMSO control) (fraction of DMSO control); NCI-H1944 is a non-small cell lung cancer line; higher = more viable cells (less compound toxicity). The note with it: 6 days.
[1] abbreviates: glucocorticoid arm: hydrocortisone 2.75 uM co-treatment, compound 1 µM.
Setting [2] is: glucocorticoid arm: hydrocortisone 2.75 uM co-treatment, compound 5 µM.
Where [3] appears, read: glucocorticoid arm: hydrocortisone 2.75 uM pre-treated 2 days and continued, compound 1 µM.
Where [4] appears, read: glucocorticoid arm: hydrocortisone 2.75 uM pre-treated 2 days and continued, compound 5 µM.
Setting [5] is: glucocorticoid arm: vehicle, compound 1 µM.
The mark [6] stands for this setting: glucocorticoid arm: vehicle, compound 5 µM.

Where a name gives a salt, the structure may show the parent alone. ± gives the standard deviation of the averaged measurements. The full ranking holds about 1,900 compounds; the median of “normalised cell viability (NPI; 0 = phenylarsine oxide control, 1 = DMSO control)” is about 1, and the lowest 2% start at about 0.039. This is one part of the list.
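Note: CTB read-out in 384-well plates, mean of triplicate wells, normalised per plate against 1 µM phenylarsine oxide and 0.1% DMSO, compounds added 24 h after seeding.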

Turning to `N[C@H](C(=O)O)[C@H]1C[C@@H]1C(=O)O` [(2S,1'S,2'S)-2-(carboxycyclopropyl)glycine], the normalised cell viability is, setting by setting: under setting [1], 0.99 ± 0.0046; under setting [2], 0.979 ± 0.019; under setting [3], 0.994 ± 0.0095; under setting [4], 0.978 ± 0.015; under setting [5], 0.9847 ± 0.0055; under setting [6], 0.9883 ± 0.0097.

`O=C(O)C1(C(=O)O)CCC1.[NH2-].[NH2-].[Pt+2]` [Carboplatin]: the normalised cell viability by setting is: under setting [3], 1.02; under setting [5], 1.

On to `COC(=O)C(N)Cc1ccc(Cl)cc1` (racemic) [DL-p-Chlorophenylalanine methyl ester hydrochloride], for which the normalised cell viability under setting [1] turned out to be 1.02 ± 0.01; the normalised cell viability under setting [2] stood at 1.02 ± 0.015; the normalised cell viability under setting [3] turned out to be 1.017 ± 0.0058; the normalised cell viability under setting [4] worked out at 1.02 ± 0.014; the normalised cell viability under setting [5] worked out at 1.006 ± 0.0069; the normalised cell viability under setting [6] is 1.017 ± 0.0058.

In the case of `O=C(Nc1ccc([N+](=O)[O-])cc1O)Nc1ccccc1Br`, the normalised cell viability reads like this: under setting [1], 0.987 ± 0.013; under setting [2], 0.386 ± 0.027; under setting [3], 0.985 ± 0.015; under setting [4], 0.9383 ± 0.0085; under setting [5], 0.9703 ± 0.006; under setting [6], 0.0592 ± 0.0097.

Take `O=C(c1cncc(Br)c1)N1CCC(N2CCCC2)CC1`: the normalised cell viability came out at 0.988 ± 0.015 under setting [1]; 1.02 ± 0.01 under setting [2]; 0.99 ± 0.017 under setting [3]; 1.01 ± 0.02 under setting [4]; 0.9927 ± 0.005 under setting [5]; 0.9893 ± 0.0031 under setting [6].

Consider `O=c1c(O)c(-c2ccc(O)c(O)c2)oc2cc(O)cc(O)c12` [Quercetin], for which the normalised cell viability by setting is: under setting [1], 0.9767 ± 0.0064; under setting [2], 1.01 ± 0.016; under setting [3], 0.976 ± 0.015; under setting [4], 0.983 ± 0.013; under setting [5], 0.996 ± 0.0061; under setting [6], 0.991 ± 0.005.

With `O=c1c(O)c(-c2ccc(O)c(O)c2)oc2cc(O)cc(O)c12` [Quercetin (Sophoretin)], the normalised cell viability came to 1.01 ± 0.011 under setting [1]; 1.03 ± 0.025 under setting [2]; 1.01 ± 0.015 under setting [3]; 0.993 ± 0.034 under setting [4]; 0.9973 ± 0.0046 under setting [5]; 1.017 ± 0.0058 under setting [6].

Take `O=c1c(O)c(-c2ccc(O)c(O)c2)oc2cc(O)cc(O)c12` [Quercetin dihydrate]: the normalised cell viability reads like this: under setting [1], 0.996 ± 0.0052; under setting [2], 0.978 ± 0.017; under setting [3], 0.779 ± 0.4; under setting [4], 0.999 ± 0.018; under setting [5], 1.01; under setting [6], 1.007 ± 0.0058.

Take `COc1ccc(NC(=O)c2ccc(-c3ccc(-c4noc(C)n4)cc3C)cc2)cc1N1CCN(C)CC1`: the normalised cell viability runs as follows: under setting [1], 1.006 ± 0.0063; under setting [2], 0.000294 ± 0.00029; under setting [3], 1.02 ± 0.01; under setting [4], 0.00887 ± 0.01; under setting [5], 0.9987 ± 0.0023; under setting [6], 0.000181 ± 0.0015.

For `CCCCNc1ccc(C(=O)OCCN(C)C)cc1` [Tetracaine hydrochloride], the normalised cell viability was determined as 1.001 ± 0.0081 under setting [1]; 1.03 ± 0.01 under setting [2]; 1.02 ± 0.021 under setting [3]; 1.023 ± 0.0058 under setting [4]; 0.9867 ± 0.0021 under setting [5]; 0.9877 ± 0.0038 under setting [6].

With `CC(C)=CCC/C(C)=C/CC/C(C)=C/CSc1ccccc1C(=O)O` [Farnesylthiosalicylic acid], the normalised cell viability stood at 0.993 ± 0.018 under setting [1]; 0.996 ± 0.027 under setting [2]; 0.9933 ± 0.0072 under setting [3]; 0.975 ± 0.013 under setting [4]; 1.002 ± 0.0068 under setting [5]; 1.001 ± 0.0078 under setting [6].

Regarding `CCCCCOC(=O)Nc1nc(=O)n([C@@H]2O[C@H](C)[C@@H](O)[C@H]2O)cc1F` [Capecitabine], the normalised cell viability is, setting by setting: under setting [1], 1.02 ± 0.01; under setting [2], 0.871 ± 0.044; under setting [3], 1 ± 0.015; under setting [4], 0.919 ± 0.05; under setting [5], 1.001 ± 0.0076; under setting [6], 0.61 ± 0.039.

With `COc1ccc2cc(-c3nc(-c4ccc([S+](C)[O-])cc4)[nH]c3-c3ccncc3)ccc2c1` (stereo not given) [Tie2 kinase inhibitor], the normalised cell viability by setting is: under setting [1], 1 ± 0.016; under setting [2], 1.002 ± 0.0072; under setting [3], 0.992 ± 0.0087; under setting [4], 1 ± 0.018; under setting [5], 0.997 ± 0.0017; under setting [6], 0.9943 ± 0.0098.

With `CCN(CC)CCOc1ccc(C(=C(Cl)c2ccccc2)c2ccccc2)cc1` [Clomifene citrate], the normalised cell viability is, setting by setting: under setting [1], 0.946 ± 0.014; under setting [2], 0.804 ± 0.044; under setting [3], 0.966 ± 0.017; under setting [4], 0.969 ± 0.012; under setting [5], 0.9957 ± 0.0075; under setting [6], 0.18 ± 0.023.
